# Laboratory results published in the supplement of paper PMC4604168 (melanoma cell lines).
# This is one part of the list. Single values are uncertain, as repeats are few or missing.
# What was measured:
# Test in all cases: cell count relative to DMSO control; melanoma cells; higher = more viable cells
# Conditions in all cases: library dose: low library concentration; 72 h; first compound 0.4 µM
# MZ2-MEL = system: MZ2-MEL
# MeWo = system: MeWo
# RPMI7951 = system: RPMI7951
# RVH-421 = system: RVH-421
# SkMel28 = system: SkMel28
# SkMel2 = system: SkMel2
# SkMel30 = system: SkMel30
# UACC62 = system: UACC62
# 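Also: cell number obtained by counting DAPI-stained nuclei in high-throughput microscope images with image analysis software, screen run in 1,536-well plates.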
SMILES,cell count (MZ2-MEL) [%],cell count (MeWo) [%],cell count (RPMI7951) [%],cell count (RVH-421) [%],cell count (SkMel28) [%],cell count (SkMel2) [%],cell count (SkMel30) [%],cell count (UACC62) [%]
CCCCCCCCCCCCCCCCCCOP(=O)([O-])OC1CC[N+](C)(C)CC1 [Perifosine] + C#Cc1cccc(Nc2ncnc3cc(OCCOC)c(OCCOC)cc23)c1 [erlotinib] (partner dose 0.8 µM),91.3,88.4,54.7,86.9,105,105,85.2,69.4
Cn1sc(=O)n(Cc2ccccc2)c1=O + Cc1cc(Nc2cc(N3CCN(C)CC3)nc(/C=C/c3ccccc3)n2)n[nH]1 [ENMD2076] (partner dose 0.04 µM),94,125,113,98.1,96.6,96.2,91.5,101
CCCCCCCCCCCCCCCCCCOP(=O)([O-])OC1CC[N+](C)(C)CC1 [Perifosine] + CN(c1ncccc1CNc1nc(Nc2ccc3c(c2)CC(=O)N3)ncc1C(F)(F)F)S(C)(=O)=O [PF562271] (partner dose 0.08 µM),99.6,114,43.1,94.9,84.1,95.1,101,83
C[C@@H](N)c1ccc(C(=O)Nc2ccnc3[nH]ccc23)cc1 + Clc1ccc(Nc2nnc(Cc3ccncc3)c3ccccc23)cc1 [vatalanib] (partner dose 2 µM),71.5,72.1,77.7,49.6,90.5,103,115,97.4
CCCCCCCCCCCCCCCCCCOP(=O)([O-])OC1CC[N+](C)(C)CC1 [Perifosine] + CNC(=O)c1cc(Oc2ccc(NC(=O)Nc3ccc(Cl)c(C(F)(F)F)c3)cc2)ccn1 [sorafenib] (partner dose 0.4 µM),88.9,93.6,66.6,92.4,93.2,102,99.8,93.1
C[C@@H](N)c1ccc(C(=O)Nc2ccnc3[nH]ccc23)cc1 + Nc1cccc2c1CN(C1CCC(=O)NC1=O)C2=O [lenalidomide] (partner dose 1 µM),74.1,74.5,69.2,44.8,46.5,103,99.4,78.3
CCCCCCCCCCCCCCCCCCOP(=O)([O-])OC1CC[N+](C)(C)CC1 [Perifosine] + CS(=O)(=O)c1ccc(C(=O)Nc2ccc(Cl)c(-c3ccccn3)c2)c(Cl)c1 [vismodegib] (partner dose 1 µM),106,99.5,74.4,86.2,102,90,102,80.3
Cn1sc(=O)n(Cc2ccccc2)c1=O + COc1ccc(Cl)c(Nc2nc3ccccc3nc2NS(=O)(=O)c2cccc(NC(=O)C(C)(C)N)c2)c1 [XL147] (partner dose 0.8 µM),88.5,88.9,83.8,96.9,94.3,94.4,95.4,92.6
Cn1sc(=O)n(Cc2ccccc2)c1=O + C[C@]1(O)C[C@@H](c2nc(-c3ccc4ccc(-c5ccccc5)nc4c3)c3c(N)nccn32)C1 [OSI906] (partner dose 0.4 µM),97.8,93.3,77.2,94.7,91.4,83.1,88.6,87.2
Cn1sc(=O)n(Cc2ccccc2)c1=O + CN1CCN(c2ccc3nc(-c4c(N)c5c(F)cccc5[nH]c4=O)[nH]c3c2)CC1 [Dovitinib] (partner dose 0.1 µM),109,95.8,84.2,114,94.1,107,97.3,93.1
CCCCCCCCCCCCCCCCCCOP(=O)([O-])OC1CC[N+](C)(C)CC1 [Perifosine] + CC(=O)O[C@@]12CO[C@@H]1C[C@H](O)[C@@]1(C)C(=O)[C@H](O)C3=C(C)[C@@H](OC(=O)[C@H](O)[C@@H](NC(=O)OC(C)(C)C)c4ccccc4)C[C@@](O)([C@@H](OC(=O)c4ccccc4)[C@H]21)C3(C)C [Docetaxel] (partner dose 0.0001 µM),65.5,51.8,33.4,71.9,34.3,45,38.7,55.4
C[C@@H](N)c1ccc(C(=O)Nc2ccnc3[nH]ccc23)cc1 + C[C@]1(O)C[C@@H](c2nc(-c3ccc4ccc(-c5ccccc5)nc4c3)c3c(N)nccn32)C1 [OSI906] (partner dose 0.4 µM),61.2,66.3,79.1,73.3,103,83.2,57.9,78.4
CCCCCCCCCCCCCCCCCCOP(=O)([O-])OC1CC[N+](C)(C)CC1 [Perifosine] + CCN(CC)CCNC(=O)c1c(C)[nH]c(/C=C2\C(=O)Nc3ccc(F)cc32)c1C [sunitinib] (partner dose 0.4 µM),127,102,69.6,108,85,113,93.4,97.3
C[C@@H](N)c1ccc(C(=O)Nc2ccnc3[nH]ccc23)cc1 + CN1CCN(c2ccc3nc(-c4c(N)c5c(F)cccc5[nH]c4=O)[nH]c3c2)CC1 [Dovitinib] (partner dose 0.1 µM),87.2,81.2,65.1,83.2,79,93.6,88.3,89
CCCCCCCCCCCCCCCCCCOP(=O)([O-])OC1CC[N+](C)(C)CC1 [Perifosine] + CCCCCCCCc1ccc(CCC(N)(CO)CO)cc1 [fingolimod] (partner dose 2 µM),96,102,68.5,99,95.3,98.4,89.3,98.8
CCCCCCCCCCCCCCCCCCOP(=O)([O-])OC1CC[N+](C)(C)CC1 [Perifosine] + OCc1c[nH]c2ccccc12 [Indole-3-carbinol] (partner dose 0.8 µM),92.7,108,74.1,99.7,108,89.7,87.7,100
C[C@@H](N)c1ccc(C(=O)Nc2ccnc3[nH]ccc23)cc1 + O=C(O)c1ccc2c(c1)nc(Nc1cccc(Cl)c1)c1ccncc12 [CX4945] (partner dose 0.4 µM),68,72.7,78.4,57.8,71.7,92.3,113,90.4
CCCCCCCCCCCCCCCCCCOP(=O)([O-])OC1CC[N+](C)(C)CC1 [Perifosine] + Cn1sc(=O)n(Cc2ccccc2)c1=O [TDZD-8] (partner dose 0.4 µM),109,89.9,73.2,91.5,75.3,102,103,96.7
Cn1sc(=O)n(Cc2ccccc2)c1=O + CS(=O)(=O)c1ccc(C(=O)Nc2ccc(Cl)c(-c3ccccn3)c2)c(Cl)c1 [vismodegib] (partner dose 1 µM),93.5,103,105,124,103,105,87.1,111
Cn1sc(=O)n(Cc2ccccc2)c1=O + CCCCCCCCc1ccc(CCC(N)(CO)CO)cc1 [fingolimod] (partner dose 2 µM),95.3,101,76.7,110,101,97.9,97.1,89.8
Cn1sc(=O)n(Cc2ccccc2)c1=O + O=C(O)c1ccc2c(c1)nc(Nc1cccc(Cl)c1)c1ccncc12 [CX4945] (partner dose 0.4 µM),92.6,94.7,92.3,98,92.1,97.8,112,96.3
CCCCCCCCCCCCCCCCCCOP(=O)([O-])OC1CC[N+](C)(C)CC1 [Perifosine] + COCC[n+]1c2c(n(Cc3cnccn3)c1C)C(=O)c1ccccc1C2=O [YM155] (partner dose 0.0004 µM),55.9,102,57.9,90.8,101,88.6,88.1,102
CCCCCCCCCCCCCCCCCCOP(=O)([O-])OC1CC[N+](C)(C)CC1 [Perifosine] + O=C(/C=C/c1cccnc1)NCCCCC1CCN(C(=O)c2ccccc2)CC1 [FK866] (partner dose 0.01 µM),45.5,99.9,113,73.3,95.7,46.2,96.4,79.9
C[C@@H](N)c1ccc(C(=O)Nc2ccnc3[nH]ccc23)cc1 + CS(=O)(=O)c1ccc(C(=O)Nc2ccc(Cl)c(-c3ccccn3)c2)c(Cl)c1 [vismodegib] (partner dose 1 µM),76.9,67.1,78.3,76.6,36.4,85.7,109,82.9
Cn1sc(=O)n(Cc2ccccc2)c1=O + CCCS(=O)(=O)Nc1ccc(F)c(C(=O)c2c[nH]c3ncc(Cl)cc23)c1F [PLX4720] (partner dose 0.08 µM),82.7,101,103,70.2,104,92.2,108,63.1
CCCCCCCCCCCCCCCCCCOP(=O)([O-])OC1CC[N+](C)(C)CC1 [Perifosine] + C=CCNC1=C2C[C@@H](C)C[C@H](OC)[C@H](O)[C@@H](C)/C=C(\C)[C@H](OC(N)=O)[C@@H](OC)/C=C\C=C(/C)C(=O)NC(=CC1=O)C2=O [Tanespimycin] (partner dose 0.002 µM),100,103,51,105,90.1,93.1,91.8,100
C[C@@H](N)c1ccc(C(=O)Nc2ccnc3[nH]ccc23)cc1 + CC(C)C[C@H](NC(=O)[C@H](Cc1ccccc1)NC(=O)c1cnccn1)B(O)O [Bortezomib] (partner dose 0.001 µM),84,68.7,64.5,76.4,61.8,96.2,95,76.5
CCCCCCCCCCCCCCCCCCOP(=O)([O-])OC1CC[N+](C)(C)CC1 [Perifosine] + Clc1ccc(Nc2nnc(Cc3ccncc3)c3ccccc23)cc1 [vatalanib] (partner dose 2 µM),100,79.4,71.7,87.9,96.7,103,122,102
